Measurements: PMC4336329 (PLoS ONE, 2015)
In all, about 310,000 compounds went through this assay and about 2,200 (0.71%) showed an effect of 50% or more. Effects have a minus sign here. Some of the results follow.

These compounds were tested against human ether-à-go-go-related gene (hERG) potassium channel (human, UniProt Q12809) (assay: primary screen, population patch clamp on CHO cells stably expressing hERG).
human ether-à-go-go-related gene (hERG) potassium channel, sequence (Q12809 whole entry, looked up): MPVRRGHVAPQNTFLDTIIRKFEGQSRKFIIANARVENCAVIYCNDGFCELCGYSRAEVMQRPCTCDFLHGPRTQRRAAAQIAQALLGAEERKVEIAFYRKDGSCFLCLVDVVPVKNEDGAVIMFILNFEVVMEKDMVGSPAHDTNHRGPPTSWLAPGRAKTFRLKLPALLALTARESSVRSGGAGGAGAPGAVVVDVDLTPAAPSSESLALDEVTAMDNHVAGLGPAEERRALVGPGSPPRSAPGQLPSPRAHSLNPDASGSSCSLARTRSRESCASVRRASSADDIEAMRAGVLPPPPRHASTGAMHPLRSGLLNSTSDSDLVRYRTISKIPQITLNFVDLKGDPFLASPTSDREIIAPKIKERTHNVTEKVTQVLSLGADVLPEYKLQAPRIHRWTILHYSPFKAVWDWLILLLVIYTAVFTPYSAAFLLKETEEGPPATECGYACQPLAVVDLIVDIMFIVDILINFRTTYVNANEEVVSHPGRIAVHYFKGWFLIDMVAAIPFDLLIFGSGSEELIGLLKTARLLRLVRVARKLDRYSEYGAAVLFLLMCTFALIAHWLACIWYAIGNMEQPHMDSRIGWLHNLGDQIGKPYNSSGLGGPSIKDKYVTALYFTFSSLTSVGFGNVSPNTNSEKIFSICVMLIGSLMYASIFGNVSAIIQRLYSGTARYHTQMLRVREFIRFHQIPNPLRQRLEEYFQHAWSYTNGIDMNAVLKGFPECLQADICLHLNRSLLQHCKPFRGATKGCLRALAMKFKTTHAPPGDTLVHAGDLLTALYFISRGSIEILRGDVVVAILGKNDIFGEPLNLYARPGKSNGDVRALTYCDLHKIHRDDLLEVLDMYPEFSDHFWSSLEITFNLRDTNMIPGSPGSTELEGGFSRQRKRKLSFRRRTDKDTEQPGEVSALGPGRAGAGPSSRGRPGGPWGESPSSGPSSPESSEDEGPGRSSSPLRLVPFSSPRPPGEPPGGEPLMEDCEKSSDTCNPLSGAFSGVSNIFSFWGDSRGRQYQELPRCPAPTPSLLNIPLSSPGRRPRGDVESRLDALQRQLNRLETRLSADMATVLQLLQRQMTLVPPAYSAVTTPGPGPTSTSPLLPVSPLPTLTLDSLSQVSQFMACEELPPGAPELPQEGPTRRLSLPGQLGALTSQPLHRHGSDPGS
For `CC(C)(C)c1ccc(-c2noc(CCC(=O)NCC3CCCO3)n2)cc1` (centres unmarked), the “hERG current change (%, negative = inhibition) at 1uM” value was 1.78%.
In the case of `COc1ccc(S(=O)(=O)N(Cc2nc3ccccc3c(=O)[nH]2)C2CCCC2)cc1`, the “hERG current change (%, negative = inhibition) at 1uM” value is reported as 7.62%.
With `O=C(c1ccccc1Sc1ccccc1[N+](=O)[O-])N1CCCCC1` the “hERG current change (%, negative = inhibition) at 1uM” value was 0.669%.
With `CCCCc1ccc(CC(=O)O)cc1` the “hERG current change (%, negative = inhibition) at 1uM” value was 10.9%.
With `CCCc1nc2oc3c(NCCCN(C)C)ncnc3c2c2c1CCCC2` the “hERG current change (%, negative = inhibition) at 1uM” value was 10.7%.
`CC(=O)N1CCN(c2ccc(S(=O)(=O)NCCN(C(C)C)C(C)C)cc2[N+](=O)[O-])CC1` was tested, and the “hERG current change (%, negative = inhibition) at 1uM” value was 13.9%.
With `CCOc1ccc(C(C)=O)cc1COc1ccc(-n2cnnn2)cc1` the “hERG current change (%, negative = inhibition) at 1uM” value was 6.12%.
With `CCOC(=O)CNc1ccc(OC(F)(F)F)cc1` the “hERG current change (%, negative = inhibition) at 1uM” value was 4.77%.
For `COC(=O)c1cn(C(=O)/C=C/c2ccc(OC)c(OC)c2)c2ccccc12`, the “hERG current change (%, negative = inhibition) at 1uM” value was 12.7%.
For `O=C(CNC(=O)c1ccccc1)NCc1ccc(Cl)cc1`, the “hERG current change (%, negative = inhibition) at 1uM” value was 16.4%.
For `COCCCNC(=O)CSc1nc2c(sc(=S)n2-c2cc(Cl)ccc2OC)c(=O)[nH]1`, the “hERG current change (%, negative = inhibition) at 1uM” value was 15.2%.
`Cc1ccc(C(CNS(=O)(=O)c2ccc(Br)cc2)N2CCN(C)CC2)cc1` (centres unmarked) was tested, and the “hERG current change (%, negative = inhibition) at 1uM” value was -18.7%.
In the case of `COc1cccc(NC(=O)c2nnn(Cc3ccc(Br)cc3F)c2N)c1`, the “hERG current change (%, negative = inhibition) at 1uM” value is reported as 9.85%.
With `COc1cc(/C=C/C(=O)OCC(=O)Nc2cccc(Oc3ccccc3)c2)ccc1O` the “hERG current change (%, negative = inhibition) at 1uM” value was 4.94%.
In the case of `CC(=O)c1c(C)[nH]c(C(=O)OCC(=O)Nc2cc(S(=O)(=O)N3CCCC3)ccc2Cl)c1C`, the “hERG current change (%, negative = inhibition) at 1uM” value is reported as 15.6%.
With `COc1ccc(CCNC(=O)C2Cc3ccccc3C(=O)O2)cc1` (centres unmarked) the “hERG current change (%, negative = inhibition) at 1uM” value was -1.47%.
With `CCOC(=O)C1=C(O)CSC1=Nc1ccc(Cl)cc1` the “hERG current change (%, negative = inhibition) at 1uM” value was 11.9%.
With `O=C(Nc1nc(-c2ccccc2)cs1)NC1CCCCC1` the “hERG current change (%, negative = inhibition) at 1uM” value was 4.35%.
`CC(NC(=O)c1ccccc1)c1nc2ccccc2n1Cc1ccccc1F` (centres unmarked) was tested, and the “hERG current change (%, negative = inhibition) at 1uM” value was 14.7%.
`C=CCNC(=O)c1ccc(N(Cc2ccc(Cl)cc2)S(C)(=O)=O)cc1` was tested, and the “hERG current change (%, negative = inhibition) at 1uM” value was 5.31%.
In the case of `CCOc1nc(-c2ccc(OC)cc2)ccc1-c1noc(-c2cc(OC)c(OC)c(OC)c2)n1`, the “hERG current change (%, negative = inhibition) at 1uM” value is reported as 4.92%.
In the case of `CC(/C=C/c1ccccc1)=N\Nc1ccccc1[N+](=O)[O-]`, the “hERG current change (%, negative = inhibition) at 1uM” value is reported as 16.6%.
In the case of `O=C(Cc1ccc(N2CCNC2=O)cc1)N1CCCC(Nc2ccc(F)c(F)c2)C1` (centres unmarked), the “hERG current change (%, negative = inhibition) at 1uM” value is reported as 5.29%.
In the case of `CC(C)(C)OC(=O)N1Cc2[nH]c3ccccc3c2C[C@@H]1C(=O)O`, the “hERG current change (%, negative = inhibition) at 1uM” value is reported as 9.62%.
`O=C(Nc1ccccc1C(=O)Nc1ccc(Br)cn1)c1ccccc1Cl` was tested, and the “hERG current change (%, negative = inhibition) at 1uM” value was 5.22%.
For `COc1ccc(C(=O)NC(=S)NNC(=O)c2cnccn2)cc1`, the “hERG current change (%, negative = inhibition) at 1uM” value was 7.7%.
With `O=C(/C=C/Sc1ncn[nH]1)c1ccc(Cl)cc1` the “hERG current change (%, negative = inhibition) at 1uM” value was 4.44%.
For `Fc1ccc(OCc2nc(-c3ccc(Br)o3)no2)c(F)c1`, the “hERG current change (%, negative = inhibition) at 1uM” value was 7.15%.
In the case of `Cc1nn2c(COc3ccc(NC(=O)C(C)C)cc3)nnc2c2ccccc12`, the “hERG current change (%, negative = inhibition) at 1uM” value is reported as 11.1%.
`Cc1nc2ccc(N)cc2c(=O)n1Cc1ccc(Cl)cc1` was tested, and the “hERG current change (%, negative = inhibition) at 1uM” value was 5.92%.
For `CCOc1ccc(CNCc2ccccc2Cl)cc1.Cl`, the “hERG current change (%, negative = inhibition) at 1uM” value was -42%.
`COc1ccccc1C(=O)NNC(=O)CN1C(=O)c2ccccc2C1=O` was tested, and the “hERG current change (%, negative = inhibition) at 1uM” value was 13.5%.
With `CN(c1cccc(NS(=O)(=O)c2cccc([N+](=O)[O-])c2)c1)S(C)(=O)=O` the “hERG current change (%, negative = inhibition) at 1uM” value was 6.56%.
`CC(NC(=O)COC(=O)C1=COCCO1)C12CC3CC(CC(C3)C1)C2` (centres unmarked) was tested, and the “hERG current change (%, negative = inhibition) at 1uM” value was 11.1%.
`Cc1ccc(C(=O)Nc2cccc([N+](=O)[O-])c2)cc1S(=O)(=O)Nc1ccc(C(=O)O)cc1` was tested, and the “hERG current change (%, negative = inhibition) at 1uM” value was 4.35%.
`CN1CCN(CC(=O)Nc2ccc(S(=O)(=O)N(C)C)cc2)CC1.O=C(O)C(=O)O` was tested, and the “hERG current change (%, negative = inhibition) at 1uM” value was 6.77%.
In the case of `Cn1cc(C(=O)NC2CCCCC2)c(=O)c2cc(S(=O)(=O)N3CCCC3)ccc21`, the “hERG current change (%, negative = inhibition) at 1uM” value is reported as 0.024%.
`O=C(COc1ccc(Cl)cc1)NCC(=O)N1CCC2(CC1)NCCc1[nH]cnc12` was tested, and the “hERG current change (%, negative = inhibition) at 1uM” value was 13.1%.
With `Cc1cc(N2CCN(Cc3cn(C)nc3-c3cccc(Cl)c3)CC2)cc(C)n1` the “hERG current change (%, negative = inhibition) at 1uM” value was -4.6%.
With `O=C(COc1cccc(Br)c1)NN=C1c2ccccc2-c2ccccc21` the “hERG current change (%, negative = inhibition) at 1uM” value was 1.87%.
For `CCCNC(=O)NC(=O)CSc1nnc(-c2c[nH]c3ccccc23)o1`, the “hERG current change (%, negative = inhibition) at 1uM” value was 13.8%.
With `O=c1oc2ccccc2c(N2CCCC2)c1CN1CCCC1` the “hERG current change (%, negative = inhibition) at 1uM” value was 10.6%.
With `O=C(CC12CC3CC(CC(C3)C1)C2)Nc1cccc2ncccc12` the “hERG current change (%, negative = inhibition) at 1uM” value was -6.16%.
`COc1ccc(C(=O)N2CC3(CC(c4ccc(Cl)cc4)=NO3)C[C@H]2C(=O)NCC(N)=O)cc1` (some centres unmarked) was tested, and the “hERG current change (%, negative = inhibition) at 1uM” value was 11.5%.
In the case of `Nc1ccc(Sc2cnn(-c3ccccc3)c(=O)c2Cl)cc1`, the “hERG current change (%, negative = inhibition) at 1uM” value is reported as -12%.
`Cc1ccc(OCC(=O)NS(=O)(=O)c2ccccc2)cc1` was tested, and the “hERG current change (%, negative = inhibition) at 1uM” value was 6.83%.
`Cc1cccc(CS(=O)(=O)Cc2ccc(C(=O)NCCCN3CCCC3)o2)c1` was tested, and the “hERG current change (%, negative = inhibition) at 1uM” value was 6.86%.
In the case of `O=C(NCC(=O)N1CCN(C/C=C/c2ccccc2)CC1)c1ccc(OC(F)F)cc1`, the “hERG current change (%, negative = inhibition) at 1uM” value is reported as -50.4%.
For `COC(=O)Cn1cccc1C(=O)c1ccccc1`, the “hERG current change (%, negative = inhibition) at 1uM” value was -0.447%.
`Cc1c(C(=O)OC2CCCCC2)[nH]c2c1C(=O)CC(C)(C)C2` was tested, and the “hERG current change (%, negative = inhibition) at 1uM” value was -0.774%.
With `COc1cc(C(=O)Nc2nnc(S(=O)(=O)N3CCCCCC3)s2)cc(OC)c1OC` the “hERG current change (%, negative = inhibition) at 1uM” value was 3.09%.
For `CCOC(=O)c1ccc(S(=O)(=O)N2CCN(CCC#N)CC2)cc1`, the “hERG current change (%, negative = inhibition) at 1uM” value was -8.75%.
In the case of `O=[N+]([O-])c1ccc(CSc2nnc(Cc3ccccc3)o2)cc1`, the “hERG current change (%, negative = inhibition) at 1uM” value is reported as 7.27%.
In the case of `CCOc1ccc(NC(=O)CC2C(=O)N(c3ccccc3)C(=S)N2Cc2ccccn2)cc1` (centres unmarked), the “hERG current change (%, negative = inhibition) at 1uM” value is reported as 11.5%.
In the case of `CCCCCC1=CCC/C1=N\NC(=O)c1ccc2c(c1)OCO2`, the “hERG current change (%, negative = inhibition) at 1uM” value is reported as 1.99%.
`Cc1nnc(NC(=O)CSc2nnc(C)n2-c2ccc(F)cc2)s1` was tested, and the “hERG current change (%, negative = inhibition) at 1uM” value was 7.7%.
